From PubChem BioAssay AID411 (National Center for Advancing Translational Sciences (NCATS), 2006)
Screen size: about 72,000 compounds; about 1,600 (2.2%) were called active. Inconclusive means that the source gave no clear call. Such entries were picked first, then a sample of the others. The call rests on the fitted dose curve; in most records, active means well fitted inhibition curve with a large enough effect; inconclusive means small, poorly fitted or top-dose-only effect; inactive means flat fitted curve, though single readings scatter. Potencies of inconclusive entries are left out as doubtful fits.

These molecules were tested against Luciferin 4-monooxygenase (Photinus pyralis) (UniProt P08659) (assay: qHTS Assay for Inhibitors of Firefly Luciferase). Conditions: purified firefly luciferase, luminescence, 8 min; series mostly up to 57.1 µM; activity change, negative = inhibition: at the top concentration.
In short: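 Inhibition of light generation by firefly luciferase from ATP and luciferin was profiled with concentration-response curves per sample, ATP held at 10 uM within the enzyme's linear range. Plates were read by luminescence after an 8-minute ambient incubation.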
Further: nearly all actives have a fitted effect of over 40% in size.
On the % scale 0 is the no-effect control and ±100 the full control effect; potency means the concentration at half of the fitted maximal effect; tags describe the fitted curve by direction and shape.

Sequence of UniProt P08659 (P08659 whole entry, looked up): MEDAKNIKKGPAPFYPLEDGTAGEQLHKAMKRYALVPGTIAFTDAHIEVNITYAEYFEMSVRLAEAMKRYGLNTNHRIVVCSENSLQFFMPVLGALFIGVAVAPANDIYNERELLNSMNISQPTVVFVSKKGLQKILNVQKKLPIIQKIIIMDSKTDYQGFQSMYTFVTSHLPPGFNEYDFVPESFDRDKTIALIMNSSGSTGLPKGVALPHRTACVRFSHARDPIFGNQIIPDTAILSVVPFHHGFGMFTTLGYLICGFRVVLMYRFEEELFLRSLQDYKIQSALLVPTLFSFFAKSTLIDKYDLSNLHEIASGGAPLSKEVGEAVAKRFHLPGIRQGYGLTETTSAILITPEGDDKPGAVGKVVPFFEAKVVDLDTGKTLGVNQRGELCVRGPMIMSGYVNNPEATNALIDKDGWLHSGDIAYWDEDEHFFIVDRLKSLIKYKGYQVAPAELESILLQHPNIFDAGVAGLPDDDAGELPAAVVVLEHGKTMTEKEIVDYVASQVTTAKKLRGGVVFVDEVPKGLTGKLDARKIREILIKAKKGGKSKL

SMILES	activity change, negative = inhibition	Potency
CC1CCN(C(=O)CSc2nnc(-c3cc4ccccc4cc3O)n2Cc2ccco2)CC1	inactive: -0.69%	
O=C(NC1=NCCS1)c1ccc(Cl)s1		inconclusive [inhibitor, single point]
CCOC(=O)CNC(=O)c1ccc2c(c1)OCCO2		inconclusive [inhibitor, single point]
COc1cc(CO)cc(Br)c1OCC(=O)O	inactive: -6.92%	
CCCc1cc(C(=O)Nc2ccc(C)cc2)no1		inconclusive [inhibitor, partial curve]
O=C(/C=C/N1CCOCC1)c1ccc(-c2ccccc2)cc1		inconclusive [inhibitor, single point]
Cc1ccccc1-c1nc(-c2cccnc2)no1		inconclusive [inhibitor, single point]
Cc1cc(C(=O)COc2ncnc3sccc23)c(C)n1C		inconclusive [inhibitor, single point]
CO[C@H]1[C@H](O[C@H]2O[C@@H](C)[C@@H](O[C@@H]3C[C@](C)(O)[C@H](O)[C@H](C)O3)[C@@H](N(C)C)[C@@H]2O)[C@@H](CC=O)C[C@@H](C)[C@@H](O[C@H]2CC[C@H](N(C)C)[C@H](C)O2)/C=C\C=C/C[C@@H](C)OC(=O)C[C@H]1O	inactive: -3.5% [at 25.5 µM]	
CCCOc1ccc(OCCSc2ncccn2)cc1		inconclusive [inhibitor, single point]
c1csc(-c2ccc3ccccc3n2)c1		inconclusive [inhibitor, partial curve]
COc1cccc2c(=O)c(C(=O)NCc3cccs3)c[nH]c12		inconclusive [inhibitor, partial curve]
CCOC(=O)c1c(NC(=O)c2cccs2)sc(C(=O)N2CCOCC2)c1C	inactive: -0.853%	
OC(COc1ccc2cc(Br)ccc2c1)CN1CCCC1 (stereo unspecified)		inconclusive [inhibitor, partial curve]
COc1ccc(C(=O)Nc2cccc(N(C)S(C)(=O)=O)c2)cc1OC		inconclusive [inhibitor, single point]
COC(=O)CSc1nnc(-c2ccc(OC)cc2OC)o1		inconclusive [inhibitor, single point]
CC1(C)CC(=O)C(C=Nc2ccc3c(c2)OCO3)=C(O)C1		inconclusive [inhibitor, partial curve]
COc1ccc(-c2cc3ccc(OCc4nn[nH]n4)cc3oc2=O)cc1OC		inconclusive [inhibitor, single point]
COc1ccc2cc3c(N)c(C(=O)N4CCCC4)sc3nc2c1		inconclusive [inhibitor, single point]
CC(C)Sc1nnc([C@H](C)NC(=O)OC(C)(C)C)o1	inactive: -1.64%	
O=C(c1cc(-c2ccco2)on1)N1CCc2ccccc2C1	inactive: -1.56%	
Cc1occc1-c1nc(-c2ccccn2)no1		active: 12.6 µM
O=C(Nc1nc2cc3c(cc2s1)OCCO3)c1cccc(S(=O)(=O)N2CCOCC2)c1		inconclusive [inhibitor, partial curve, poor fit]
CCc1c(C)sc(NC(=O)c2cc(C)no2)c1C#N		inconclusive [inhibitor, single point]
Cc1ccc(S(=O)(=O)N2CCCC2C(=O)NCCc2nc3ccccc3[nH]2)cc1 (stereo unspecified)		inconclusive [inhibitor, partial curve]
CCOc1cccc(C(=O)Nc2ccc(N(CC)CC)cc2)c1		inconclusive [inhibitor, single point]

SMILES	activity change, negative = inhibition	Potency
COc1ccc(CNc2cc(-c3ccccc3OC)ncn2)c(OC)c1	inactive: -0.586% [at 2.29 µM]	
O=C(Nc1ccccc1)Nc1cccc2cccnc12		active: 20 µM
CN(C)CCCn1cc(C2=C(c3c[nH]c4ccccc34)C(=O)NC2=O)c2ccccc21	inactive: -1.34%	
Nc1ccccc1-c1nc2ccccc2[nH]1		inconclusive [inhibitor, single point]
COCCNC(=O)c1ccccc1-c1nc(-c2ccccc2Cl)no1		inconclusive [inhibitor, partial curve]
CCCCCCOc1ccc(/C(N)=N/O)cc1		inconclusive [inhibitor, single point]
CCN(CC)Cc1cc(Nc2ccnc3cc(Cl)ccc23)ccc1O	inactive: 6.38% [at 25.5 µM]	
Cc1cc(NC(=O)c2ccc(Cl)cc2)no1		inconclusive [inhibitor, full curve, poor fit]
CCC(=O)Nc1cccc(-c2nc3ccccc3c(=O)o2)c1		inconclusive [inhibitor, single point]
CC(=O)c1c(Nc2ccc3c(c2)OCCO3)oc(C)cc1=O		inconclusive [inhibitor, partial curve]
CCCCCOC(=O)c1[nH]c2c(c1C)C(=O)C(C(=O)OC)C(C)C2 (stereo unspecified)		inconclusive [inhibitor, single point]
COc1ccc2c(c1)CCc1c(C(=O)N3CCOCC3)noc1-2		inconclusive [inhibitor, partial curve]
COc1ccc(NC(=O)N2CC3(CCN(S(C)(=O)=O)CC3)C2)cc1	inactive: -1.77% [at 11.4 µM]	
O=C(c1cnccn1)N1CCC2(CC1)CN(Cc1nccs1)C2	inactive: 1.13% [at 11.4 µM]	
CCSCCCC(=O)O	inactive: 3.25% [at 11.4 µM]	
CCOC(=O)c1cc2c(=O)n3cccc(C)c3nc2n(Cc2ccco2)c1=NC(=O)c1cccnc1	inactive: 0.534%	
C=CCn1c(C)cc(C(=O)COC(=O)COc2ccccc2C#N)c1C		inconclusive [inhibitor, partial curve]
COc1ccc(Nc2oc(-c3cccs3)nc2C#N)cc1		inconclusive [inhibitor, full curve]
COC(=O)Nc1ccc2c(c1)ncn2C1CCCCC1		inconclusive [inhibitor, single point]
COc1ccc(NC(=O)Nc2ccccc2C(N)=O)cc1OC		inconclusive [inhibitor, single point]
CCC(COC(=O)Nc1cccc(C)c1)NC(=O)OCC(C)C (stereo unspecified)		inconclusive [inhibitor, single point]
O=C(Cn1nnc(-c2ccc(N3CCOCC3)cc2)n1)OC1CCCCC1		inconclusive [inhibitor, single point]
Cc1ccc(Nc2nc(N)nc(CN3CCN(Cc4ccc5c(c4)OCO5)CC3)n2)cc1Cl	inactive: 1.17%	
COCCNC(=O)C(c1ccco1)N(Cc1ccc(OC)cc1)C(=O)Cn1nnc2ccccc21 (stereo unspecified)	inactive: 0.561%	
CCOC(=O)CC(=O)CSc1nc2c(c(C)c1C#N)CCC2		inconclusive [inhibitor, single point]
O=c1c2[nH]c3ccccc3c2ncn1CCCn1ccnc1	inactive: -0.0878%	

SMILES	activity change, negative = inhibition	Potency
COc1ccc(N2CSC3=C(C#N)C(c4cc(OC)c(OC)cc4OC)CC(=O)N3C2)c(OC)c1 (stereo unspecified)	inactive: -15.5%	
Clc1ccc(-c2nc(-c3ccccn3)no2)cc1Cl		active: 3.16 µM
Cc1ccccc1Nc1nn2c(=O)c3ccccc3nc2s1		inconclusive [inhibitor, full curve]
COCCNc1nc(-c2ccc(N(C)C)cc2)nc2ccccc12		inconclusive [inhibitor, single point]
CNc1ccnc(-c2ccccc2C(F)(F)F)n1	inactive: -0.383% [at 2.29 µM]	
Cc1ccc2nc3c(cc(C(N)=S)c(=N)n3CCCOC(C)C)c(=O)n2c1	inactive: -6.28%	
Cc1cccc(NC(=O)c2cc3ccccc3o2)c1		active: 12.6 µM
c1ccc(-c2noc(-c3cccnc3)n2)cc1		active: 12.6 µM
CCOc1ccc(C(=O)NCC2CCCO2)cc1 (stereo unspecified)	inactive: -7.09%	
O=C(OCC(=O)c1cccs1)c1ccccc1		active: 12.6 µM
Brc1ccccc1-c1nnc(-c2cccnc2)o1		inconclusive [inhibitor, partial curve]
O=C(Nc1ccc2c(c1)OCCO2)c1ccc(Br)o1		active: 5.01 µM
CC1Cc2nc(SCC(=O)NCc3ccco3)n(-c3ccccc3)c(=O)c2S1 (stereo unspecified)		inconclusive [inhibitor, single point]
COc1ccc(O[C@H]2C=C[C@@H](c3ccccc3)O[C@H]2COC(=O)CC/C(C)=N\O[C@@H](C)c2cn([C@H]3COC[C@H]3O)nn2)cc1	inactive: -0.277% [at 11.4 µM]	
CC(=O)c1cccc(NC(=O)c2cc3nc(C)cc(C)n3n2)c1		inconclusive [inhibitor, single point]
Cc1ccccc1C(=O)Nc1ccc(Cl)cn1		inconclusive [inhibitor, partial curve]
COc1ccc2c(c1)S/C(=C\C(=O)c1ccncc1)N2C		active: 5.01 µM
CC(C)(C)c1ccc(C(=O)Nc2cnccn2)cc1		active: 3.98 µM
Cc1ccc(NC(=O)c2noc3c2CCCCC3)cc1C		inconclusive [inhibitor, partial curve]
Cc1ccccc1N=C1Nc2ccccc2CS1		active: 25.1 µM
N#CCCn1c(=O)c(-c2ccc(F)cc2)nc2cnc(Oc3ccccc3)nc21	inactive: 1.1% [at 11.4 µM]	
COc1ccc2nc(SCC(=O)Nc3ccc4c(c3)OCCO4)[nH]c2c1		inconclusive [inhibitor, single point]
O=C1C(C=NCCN2CCOCC2)=C(O)c2ccccc21		active: 12.6 µM
COc1ccc(CNc2ccc3c(c2)nc(C)n3C)cc1		inconclusive [inhibitor, partial curve]
